{"source": "PubChem BioAssay AID1461", "about": "(National Center for Advancing Translational Sciences (NCATS), 2008)", "note": "In all, about 220,000 compounds went through this assay and about 2,300 (1%) were called active. This list was built around the results that the source calls inconclusive (neither active nor inactive); the mix of calls is not that of the screen. Calls come from the whole dose curve; as a rule, active = well fitted inhibition curve with a large enough effect; inconclusive = small, poorly fitted or top-dose-only effect, or effect the other way; inactive = no such curve, though single readings can be large or run the other way. A potency beside an inconclusive call is a rough fit, not a confirmed value. % is set by controls: 0 for no effect and ±100 for the full control effect; potency is the fitted concentration of half-maximal effect; tags give direction and shape of the fitted curve."}
{"biological_target": "Neuropeptide S receptor (Homo sapiens) (UniProt Q6W5P4)", "sequence (Q6W5P4 whole entry, looked up)": "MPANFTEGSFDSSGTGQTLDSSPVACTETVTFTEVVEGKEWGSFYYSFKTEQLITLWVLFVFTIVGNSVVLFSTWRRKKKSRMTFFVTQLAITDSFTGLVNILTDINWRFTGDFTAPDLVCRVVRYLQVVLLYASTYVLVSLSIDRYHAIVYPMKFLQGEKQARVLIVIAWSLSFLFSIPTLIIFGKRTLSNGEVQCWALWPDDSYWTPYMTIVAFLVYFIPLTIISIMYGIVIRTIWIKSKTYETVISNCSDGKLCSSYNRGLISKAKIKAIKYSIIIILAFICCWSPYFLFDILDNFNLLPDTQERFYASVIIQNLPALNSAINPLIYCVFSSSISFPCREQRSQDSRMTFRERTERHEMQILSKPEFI", "experiment": "qHTS Assay for Antagonists of the Neuropeptide S Receptor: cAMP Signal Transduction; note: nearly all actives have a fitted effect of over 50% in size", "conditions": "CHO-NPSR cells, cAMP TR-FRET, antagonist mode; activity change, negative = inhibition: at 38.3 µM (top of the series) unless noted"}
{"smiles": "NC(=O)c1ccc(-n2nnnc2SCc2ccccc2)cc1", "activity change, negative = inhibition": "inactive: -17.1% [at 46.1 µM]"}
{"smiles": "Cc1ccc(NC(=O)CSc2nc(N)c3cc4c(nc3n2)CCCC4)cc1", "Potency": "inconclusive: 10 µM [inhibitor, single point]"}
{"smiles": "O=C(NCc1ccccc1)c1cccc(OCC(=O)N2CCN(C(=O)c3ccco3)CC2)c1", "activity change, negative = inhibition": "inactive: 2.54% [at 46.1 µM]"}
{"smiles": "COc1ccc(OC)c(NC(=O)C2CCN(c3ncccn3)CC2)c1", "Potency": "inconclusive: 5.01 µM [inhibitor, single point]"}
{"smiles": "CCCCCCN=C1CC(C)(C)CC(=O)/C1=C(/O)CCC", "Potency": "inconclusive: 25.1 µM [inhibitor, single point]"}
{"smiles": "COc1cc(OC)c(N(C)S(=O)(=O)c2cccc(C(=O)OCc3c(C)noc3C)c2)cc1Cl", "Potency": "inconclusive: 10 µM [inhibitor, single point]"}
{"smiles": "CCCN(CCC)C(=O)Nc1cc(Cl)ccc1OC", "Potency": "inconclusive: 25.1 µM [inhibitor, single point]"}
{"smiles": "CCN1C(=O)C(O)(CC(=O)c2c(C)coc2C)c2ccccc21", "note": "(centres undefined)", "Potency": "inconclusive: 12.6 µM [activator, single point]"}
{"smiles": "CCOC(=O)c1c(-c2cccs2)csc1NC(=O)COC(=O)c1c(C)noc1C", "Potency": "inconclusive: 12.6 µM [inhibitor, partial curve, poor fit]"}
{"smiles": "N=c1c2c(-c3ccccc3)c(-c3ccccc3)n(Cc3ccccc3)c2ncn1CCO", "Potency": "inconclusive: 12.6 µM [inhibitor, single point]"}
{"smiles": "Fc1ccc(-c2cc3nc(-c4ccccc4)cc(N4CCN(CCN5CCOCC5)CC4)n3n2)cc1", "activity change, negative = inhibition": "inconclusive: -39% [inhibitor] [at 46.1 µM]"}
{"smiles": "COc1ccc(CCN(C)CCCC(C#N)(c2cc(OC)c(OC)c(OC)c2)C(C)C)cc1OC", "note": "(centres undefined)", "Potency": "inconclusive: 20 µM [inhibitor, partial curve]"}
{"smiles": "O=C(N/N=C/c1cccc(OCc2ccccc2)c1)c1cccs1", "Potency": "inconclusive: 31.6 µM [inhibitor, single point]"}
{"smiles": "COc1ccc(-c2nnc(CSc3nc4ccccc4c(=O)n3CC(C)C)o2)cc1OC", "Potency": "inconclusive: 12.6 µM [inhibitor, single point]"}
{"smiles": "Cc1ccc(C)c(NS(=O)(=O)c2cc(C(=O)NCCC3=CCCCC3)ccc2C)c1", "Potency": "inconclusive: 25.1 µM [inhibitor, single point]"}
{"smiles": "N#Cc1nc(-c2ccccc2)oc1NCCN1CCCCC1", "Potency": "inconclusive: 5.01 µM [inhibitor, single point]"}
{"smiles": "Nc1nnc(-c2ccco2)s1", "activity change, negative = inhibition": "inactive: 0.884% [at 46.1 µM]"}
{"smiles": "S=c1[nH]nc(-c2cccnc2)n1/N=C/c1ccco1", "activity change, negative = inhibition": "inactive: -12.9%"}
{"smiles": "CCOC(=O)c1c(C)n(-c2ccc(C)cc2)c2ccc(O)c(CN(C)C)c12", "activity change, negative = inhibition": "inactive: -52.6%"}
{"smiles": "O=C(O)c1ccc(Sc2nnc(-c3cccc(Br)c3)o2)c([N+](=O)[O-])c1", "Potency": "inconclusive: 25.1 µM [inhibitor, single point]"}
{"smiles": "Cc1ccc(C)c(C(C)NC(=O)c2ccc(Br)o2)c1", "note": "(centres undefined)", "activity change, negative = inhibition": "inactive: -2.06%"}
{"smiles": "CCCC(=O)N1CCN(c2ccc(NC(=O)c3ccc([N+](=O)[O-])o3)cc2Cl)CC1", "Potency": "active: 3.98 µM"}
{"smiles": "Cc1nc(N2CCCCC2C)c2c(C)c(C(=O)Nc3ccccc3C(F)(F)F)sc2n1", "note": "(centres undefined)", "Potency": "inconclusive: 10 µM [inhibitor, single point]"}
{"smiles": "CCOc1cc(/C=N/NC(=O)c2cccs2)cc([N+](=O)[O-])c1O", "activity change, negative = inhibition": "inactive: 53.2%"}
{"smiles": "Cc1ccc2cc(CN(CC3CCCO3)C(=O)NC3CCCCC3)c(=O)[nH]c2c1C", "note": "(centres undefined)", "activity change, negative = inhibition": "inactive: -12.5% [at 46.1 µM]"}
{"smiles": "Cc1ccc(-c2noc(N=O)c2NO)cc1", "Potency": "inconclusive: 25.1 µM [inhibitor, single point]"}
{"smiles": "CC1(C)C(=O)OC(c2c(F)c(F)c(F)c(F)c2F)C2(CCCCC2)C1=O", "note": "(centres undefined)", "Potency": "inconclusive: 20 µM [inhibitor, single point]"}
{"smiles": "CC1(C(=O)N(Cc2ccccc2)Cc2ccccc2)CC1(Br)Br", "note": "(centres undefined)", "Potency": "inconclusive: 12.6 µM [inhibitor, single point]"}
{"smiles": "CCCn1c(-c2ccc(OC)cc2)nc2ccccc21", "Potency": "inconclusive: 0.0032 µM [inhibitor, full curve, poor fit]"}
{"smiles": "C/C(=N\\NC(=O)C(C)n1nc(C)c([N+](=O)[O-])c1C)c1ccccc1O", "note": "(centres undefined)", "activity change, negative = inhibition": "inactive: 10.7%"}
{"smiles": "CN(C(=O)CCN1C(=O)c2ccccc2C1=O)C1CCCCC1", "activity change, negative = inhibition": "inactive: -1.54% [at 46.1 µM]"}
{"smiles": "CCCCCCc1cc2cc(-c3nnc(-c4ccccc4OC)o3)c(=O)oc2cc1O", "Potency": "inconclusive: 12.6 µM [inhibitor, single point]"}
{"smiles": "CC(C)(C)C(=O)N1CCCC1C(=O)O", "note": "(centres undefined)", "Potency": "inconclusive: 25.1 µM [inhibitor, single point]"}
{"smiles": "Nc1nc(-c2cccc(NS(=O)(=O)c3ccccc3)c2)cs1", "activity change, negative = inhibition": "inactive: -20.7% [at 46.1 µM]"}
{"smiles": "COc1cc2c(C(=O)Nc3ccc4c(c3)OCO4)cn(CC(C)C)c(=O)c2cc1OC", "Potency": "inconclusive: 15.8 µM [inhibitor, single point]"}
{"smiles": "Cc1cc(C(=O)CCl)c(C)n1-c1cccc([N+](=O)[O-])c1", "activity change, negative = inhibition": "inactive: -18.6%"}
{"smiles": "O=C(CCC(=O)Nc1ccccc1)N/N=C/c1ccncc1", "Potency": "inconclusive: 10 µM [inhibitor, partial curve]"}
{"smiles": "O=C(CSc1nccn1-c1ccc(Cl)cc1)NCc1ccc2c(c1)OCO2", "Potency": "inconclusive: 0.316 µM [inhibitor, full curve, poor fit]"}
{"smiles": "Cc1nnc(SCC(=O)Nc2sc3c(c2C#N)CCCCC3)n1N", "activity change, negative = inhibition": "inactive: -9.54% [at 46.1 µM]"}
{"smiles": "Cc1[nH]c2ccc(F)cc2c1CCN(Cc1cccnc1)C(=S)Nc1ccc(F)cc1", "Potency": "active: 10 µM"}
{"smiles": "COCCNC(=S)Nc1ccc2nsnc2c1", "activity change, negative = inhibition": "inactive: -12.6%"}
{"smiles": "O=C1C2C3c4ccccc4C(c4ccccc43)C2c2nc3ccccc3n21", "note": "(centres undefined)", "Potency": "inconclusive: 12.6 µM [inhibitor, partial curve]"}
{"smiles": "Cc1cc(C(=O)N/N=C/c2ccc(N(C)C)cc2)c2ccccc2n1", "Potency": "inconclusive: 3.16 µM [inhibitor, single point]"}
{"smiles": "S=C(NCc1ccccn1)Nc1ccc(Cl)c(Cl)c1", "Potency": "inconclusive: 12.6 µM [inhibitor, single point]"}
{"smiles": "CCOC(=O)c1csc(NC(=O)c2ccc(OC)c(OC)c2)n1", "Potency": "inconclusive: 25.1 µM [inhibitor, single point]"}
{"smiles": "CC(C)CNC(=O)c1cc([N+](=O)[O-])ccc1N1CCCCC1", "activity change, negative = inhibition": "inactive: -6.58%"}
{"smiles": "CCOc1cccc(C(=O)NC(=S)Nc2ccccc2)c1", "activity change, negative = inhibition": "inactive: -3.17%"}
{"smiles": "Cc1cc2cc3c(cc2nc1SCC(=O)Nc1c(C)cccc1C)CCC3", "Potency": "inconclusive: 25.1 µM [inhibitor, single point]"}
{"smiles": "Cn1cnc2c1c(=O)n(Cc1ccc(F)cc1Cl)c(=O)n2C", "Potency": "inconclusive: 5.01 µM [inhibitor, single point]"}
